Source: paper PMC4336329 (PLoS ONE, 2015)
Among all 310,000 compounds or so, about 14,000 (4.5%) showed an effect of 50% or more. The effect is printed as a negative number. This is one part of the list.

What follows are compounds tested against human ether-à-go-go-related gene (hERG) potassium channel (human, UniProt Q12809) (assay: primary screen, population patch clamp on CHO cells stably expressing hERG).
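Further: peak tail current of the secondary pulse compared with the same well before compound.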

Chain of human ether-à-go-go-related gene (hERG) potassium channel (Q12809 whole entry, looked up): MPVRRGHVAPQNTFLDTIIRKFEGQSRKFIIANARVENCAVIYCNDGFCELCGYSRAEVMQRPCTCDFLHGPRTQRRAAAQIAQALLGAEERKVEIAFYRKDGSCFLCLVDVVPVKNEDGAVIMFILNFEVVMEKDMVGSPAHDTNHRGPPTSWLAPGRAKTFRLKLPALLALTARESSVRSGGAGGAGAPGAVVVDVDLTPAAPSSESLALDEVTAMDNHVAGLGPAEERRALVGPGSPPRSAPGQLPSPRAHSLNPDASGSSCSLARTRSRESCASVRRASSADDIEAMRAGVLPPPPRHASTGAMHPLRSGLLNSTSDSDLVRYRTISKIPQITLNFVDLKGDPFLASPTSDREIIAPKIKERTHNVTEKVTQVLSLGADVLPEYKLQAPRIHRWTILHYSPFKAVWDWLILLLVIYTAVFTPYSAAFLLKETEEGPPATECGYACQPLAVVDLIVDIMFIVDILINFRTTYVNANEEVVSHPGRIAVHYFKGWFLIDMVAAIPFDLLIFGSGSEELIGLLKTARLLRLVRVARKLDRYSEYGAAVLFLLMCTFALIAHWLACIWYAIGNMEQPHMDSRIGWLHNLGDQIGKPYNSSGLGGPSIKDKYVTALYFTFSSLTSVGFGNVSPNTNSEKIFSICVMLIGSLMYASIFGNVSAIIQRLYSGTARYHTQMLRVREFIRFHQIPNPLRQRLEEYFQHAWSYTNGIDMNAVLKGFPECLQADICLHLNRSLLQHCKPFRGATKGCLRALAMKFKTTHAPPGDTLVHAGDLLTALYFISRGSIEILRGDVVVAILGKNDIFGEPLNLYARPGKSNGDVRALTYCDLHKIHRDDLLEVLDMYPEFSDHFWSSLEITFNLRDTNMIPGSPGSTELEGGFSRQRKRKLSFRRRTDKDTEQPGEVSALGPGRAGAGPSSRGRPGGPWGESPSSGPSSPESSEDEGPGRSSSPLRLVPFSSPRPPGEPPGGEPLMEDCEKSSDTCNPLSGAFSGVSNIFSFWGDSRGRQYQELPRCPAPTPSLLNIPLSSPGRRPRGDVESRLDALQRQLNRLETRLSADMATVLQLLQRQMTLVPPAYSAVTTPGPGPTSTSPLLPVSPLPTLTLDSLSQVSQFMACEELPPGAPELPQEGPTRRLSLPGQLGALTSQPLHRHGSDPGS

Row | Structure (SMILES) | hERG current change (%, negative = inhibition) at 10uM
1 | CC(C)CN(CC(C)C)S(=O)(=O)N1CCC(C(=O)NCCN2CCOCC2)CC1 | 19.5%
2 | CC(C)NS(=O)(=O)c1ccc(CCC(=O)NCc2ccccn2)cc1 | 14.7%
3 | O=c1[nH]c2ccccc2cc1-c1nnn(-c2ccccc2)n1 | -3.03%
4 | O=C(Cc1ccccc1)Nc1ccc(NC(=O)c2ccco2)cc1 | 22%
5 | COc1ccc(C)c2sc(N(CCCN(C)C)C(=O)c3ccc(S(=O)(=O)N4CCc5ccccc5C4)cc3)nc12.Cl | 9.73%
6 | Cc1occc1C(=O)N/N=C/c1ccc(Br)s1 | 26.4%
7 | O=C(Nc1nccs1)c1ccc(Br)c(S(=O)(=O)N2CCOCC2)c1 | -16.6%
8 | COc1ccc(CC(=O)NCCc2ccc(Cl)cc2Cl)cc1 | -1.8%
9 | O=C1CCNCCN1[C@H](CO)Cc1ccccc1 | 9.51%
10 | CC(C)(C)OC(=O)N/N=C\c1cccnc1 | 27%
11 | COc1ccc(-c2nn(CCC#N)cc2C(=O)NCc2ccccc2)cc1 | -39.7%
12 | CC(C)OC(=O)NC(Nc1ccccc1C(=O)O)(C(F)(F)F)C(F)(F)F | 13.1%
13 | O=C(O)c1cc(-c2ccccc2)nc2nc(N3CCCCC3)sc12 | 8.56%
14 | COc1ccc(CN(C)C(=O)Cc2ccsc2)c(OC)c1OC | 8.67%
15 | Cc1occc1C(=O)N/N=C/c1c(O)ccc2ccccc12 | 16%
16 | O=C(CCNC(=O)c1ccc(Br)cc1)NCc1ccccn1 | -8.8%
17 | CS(=O)(=O)Cc1ccc(C(=O)Nc2cccc(-c3nc4ccccc4[nH]3)c2)cc1 | 7.22%
18 | Cc1occc1-c1nnc(SCC(=O)N2CCN(c3ccc(F)cc3)CC2)n1C | -58.5%
19 | Cc1ccc(NC(=O)/C(=C\C=C\c2ccccc2)NC(=O)c2ccccc2)cc1 | 19.4%
20 | C#CCN1C(=O)C(O)(CC(=O)/C=C/C=C/c2ccccc2)c2ccccc21 (centres unmarked) | 21.6%
21 | CCOC(=O)c1cnc2c(Cl)c(Cl)ccc2c1NCCN1CCOCC1.Cl | 14.3%
22 | Cc1ccc2[nH]c3c(=O)n(CC(=O)NCCc4ccc(Cl)cc4)ncc3c2c1 | 7.74%

Row | Structure (SMILES) | hERG current change (%, negative = inhibition) at 10uM
23 | CCOC(=O)c1c(NC(=O)/C=C/C(=O)O)sc(C)c1-c1ccc(Cl)cc1 | 13.8%
24 | Brc1ccc(-c2nnc(-c3ccccc3)o2)o1 | -20.6%
25 | COc1ccc(/C=C/C(=O)NCCCc2ccccc2)cc1OC | -5.33%
26 | CC(=O)c1ccc(S(=O)(=O)NCCC(=O)N2CCN(c3ccccn3)CC2)cc1 | -23.6%
27 | CN(c1ccccc1)S(=O)(=O)c1ccc(NC(=O)COc2ccccc2)cc1 | -17.3%
28 | O=C(Oc1ccccc1)c1ccccc1OS(=O)(=O)c1ccccc1 | 2.52%
29 | CCOc1ccc(C2c3[nH]c4ccccc4c3CCN2C(=O)Cn2cncn2)cc1 (centres unmarked) | -15%
30 | Cc1nc(C)c(C)nc1C | 13.1%
31 | Fc1ccc(C2CCCN2Cc2nc(CC3CC3)no2)cc1 (centres unmarked) | 4.07%
32 | Cc1ccc(S(=O)(=O)c2cc3c(=O)n4ccccc4nc3n(C3CCCCC3)c2=N)cc1 | -5.93%
33 | O=C(c1ccc(F)cc1)N1CCCC(C(=O)N2CCN(c3ccccc3)CC2)C1 (centres unmarked) | 13.8%
34 | CS(=O)(=O)N(CC(=O)Nc1ccccc1F)C1CCCCC1 | 10.6%
35 | CCOC(=O)C1CCCN(Cc2ccc(OCc3ccccc3)c(OC)c2)C1.O=C(O)C(=O)O (centres unmarked) | -62.2%
36 | CN(C)S(=O)(=O)n1cnc(-c2ccccc2)c1-c1ccccc1 | 12.3%
37 | Fc1ccc(NC(=S)NC2CC3CCCC(C2)N3Cc2cccs2)cc1 (centres unmarked) | -59.5%
38 | Cc1nn(CC(=O)NC2CCCCC2)c(=O)c2cccn12 | 6.69%
39 | CCCc1nc(C)cc(N2CCN(c3ccccc3)CC2)n1.Cl | -51.7%
40 | O=C(Nc1nc2ccccc2s1)c1cc2c(s1)-c1ccccc1OC2 | 3.59%
41 | O=C(NCCNC(=O)c1ccccc1)c1ccccc1 | 2.89%
42 | CC(Oc1ccc(Cl)cc1Cl)C(=O)/C=C/N(C)C (centres unmarked) | -7.41%
43 | COc1ccccc1CCN1C(=S)NC(C)(C)CC1(C)O (centres unmarked) | 17%
44 | COc1ccc(C(=O)NCC(=O)NCC(=O)OCc2ccc(Br)cc2)cc1 | -10.3%

Row | Structure (SMILES) | hERG current change (%, negative = inhibition) at 10uM
45 | COc1cccc(C2CCCN2Cc2nc(-c3cnccn3)no2)c1 (centres unmarked) | 7.84%
46 | CCCNC(=O)Cn1sc2nc(C)cc(C)c2c1=O | -6.1%
47 | Cc1c(C(C)C)c(=O)n(-c2ccc(S(=O)(=O)NC3CC3)cc2)n1C | 27%
48 | Cc1nn(CC(=O)Nc2c(F)c(F)cc(F)c2F)c(=O)c2cccn12 | 9.48%
49 | O=C(O)C1=C[C@@H](c2ccc3c(c2)OCO3)C[C@@H](OCc2ccc(CO)cc2)O1 | 8.82%
50 | O=[N+]([O-])c1cccc(/C=N/n2c(C3CCCCC3)n[nH]c2=S)c1 | 11.9%
51 | CCOC(=O)N1CCN(CC(=O)Nc2sc(CC)cc2C(=O)c2ccc(OC)cc2)CC1 | 1.54%
52 | COc1ccc(S(=O)(=O)N2CCCN(CC(=O)C(C)(C)C)CC2)cc1 | 4.55%
53 | COc1ccc2[nH]c(=O)c(CN(CCCN(C)C)C(=O)Nc3ccccc3)cc2c1 | -29.2%
54 | COc1cc(C2Nc3c(F)cccc3C3C=CCC32)cc(Br)c1OC (centres unmarked) | 2.96%
55 | Cc1cc(-c2nnc(SCC(=O)Nc3ccc(S(N)(=O)=O)cc3)n2N)n[nH]1 | -0.116%
56 | Cc1cc(C)c2ccc(=O)n(CC(=O)N/N=C/c3ccccc3Cl)c2n1 | 3.67%
57 | COC(=O)c1nnn(-c2nonc2N)c1CSCCO | 14.6%
58 | O=C(CSc1nnnn1C1CCCC1)NCCc1ccccc1 | -15.7%
59 | Cc1nn(-c2ccccc2)c(Cl)c1/C=C(\C#N)C(=O)NC(C)C | -43.9%
60 | COC1=C(C)C(=O)O[C@]12C(=O)C(C)=C1CCCCN3[C@H]([C@@H]4C[C@H](C)C(=O)O4)CC[C@]132 | -0.333%
61 | CN(C)c1ccc(C(=O)c2ccccc2C(=O)O)c(O)c1 | 12.7%
62 | COc1ccccc1NC(=O)c1oc2ccccc2c1NC(=O)C1CC1 | 1.76%
63 | CC1CCCN(S(=O)(=O)c2ccc(C(=O)Nc3nnc(C4=COCCO4)o3)cc2)C1 (centres unmarked) | 13.9%
64 | COc1ccccc1NS(=O)(=O)c1cc(NC(=O)c2ccc(Cl)nc2)ccc1Cl | -8.1%
65 | C=CCOC(=O)C1=C(C)NC(SCC(N)=O)=C(C#N)C1c1cccs1 (centres unmarked) | -13.1%
66 | COc1ccc(-c2nnn(CC(=O)N(Cc3cccs3)C(C)C(=O)NCCC(C)C)n2)cc1OC (centres unmarked) | -13.7%

Row | Structure (SMILES) | hERG current change (%, negative = inhibition) at 10uM
67 | O=C(Nc1ccccc1F)NC1CCN(Cc2nnnn2Cc2ccc(F)cc2)CC1 | -69.2%
68 | COc1cc(OC)cc(-c2c(-c3cccs3)c3cc(-c4ccc5cc[nH]c5c4)ccc3n2C)c1 | 21.7%
69 | Cc1nn(C)c(Oc2cccc(Cl)c2)c1C(=O)Nc1ccc(F)cc1 | -15.3%
70 | COc1ccc(OC)c(Nc2nc(-c3c(C)nc4ncccn34)cs2)c1 | -24.7%
71 | COC(=O)c1ccccc1NC(=O)C/C(C)=N/NC(=O)CC#N | 19%
72 | Cn1c(=O)[nH]c(=O)c2c1nc(N1CCCCC1)n2CCCSc1nc2ccccc2s1 | -36.3%
73 | COc1ccc(-c2cc(C(=O)OCC(=O)NC(C)(C)C)c3ccccc3n2)cc1 | 1.6%
74 | COc1ccc(-n2c(=O)c3c4c(sc3n(CC(=O)Nc3cc(C)[nH]n3)c2=O)CCCC4)c(OC)c1 | 12.4%
75 | CN(C)S(=O)(=O)c1ccc(NC(=O)/C=C/c2ccccc2Cl)cc1 | 0.456%
76 | CC[C@H](C)[C@@H]1O[C@@]2(C=CC1C)CC1C[C@@H](CC=C(C)C(O[C@H]3CC(OC)C(O[C@H]4CC(OC)C(O)C(C)O4)C(C)O3)C(C)C=CC=C3CO[C@@H]4C(O)C(C)=C[C@@H](C(=O)O1)[C@]34O)O2 (some centres unmarked) | -3.67%
77 | CCN1CCN(Cc2ccc(NC(=O)Nc3ccccc3OC)cc2)CC1 | -3.45%
78 | O=C(Nc1ccc(O)c2c(=O)cc(-c3cccc(Cl)c3)oc12)c1cccc(Cl)c1 | 2.03%
79 | COC(=O)c1ccc(CNC(=O)c2ccc3c(c2)NC(=O)CS3)cc1 | 2.31%
80 | COc1cccc(CN2CCN(Cc3cccc(Oc4ccccc4)c3)CC2)c1OC.O=C(O)C(=O)O | -21.7%
81 | COc1ccc(OC(C)c2ccc(C#N)c(=O)[nH]2)cc1 (centres unmarked) | -2.78%
82 | CC(=O)Nc1nonc1NC(=O)COc1ccccc1 | 8.79%
83 | O=C1CCCc2c1nc(-c1ccccc1)n2O | 6.59%
84 | CC(C)Cc1ccccc1O | -1.45%
85 | CNC(=O)C(=O)N1CCC2(CC1)OCCN2S(=O)(=O)c1ccc(C)cc1 | -0.68%
86 | Cn1c(=O)c2c(nc(CN3CCN(C(=O)c4ccco4)CC3)n2CC(N)=O)n(C)c1=O | 24.4%
